Measurements as given in the supplement of paper PMC10126150.
Sequences with one replicate were seen in a single cluster, so their values are uncertain.

Test system: ATP
Assay: switch fluorescence ratio, 500 uM ATP over buffer (Cy3 cluster intensity, sum of 5 cycles each) (fold (ratio)); higher = stronger signal-on switching upon ATP binding; sequences stand for … in TCGTCGGCAGCGTCAGATGTGTATAAGAGACAGTTTTTTTTTTTTTTTTTTTTTTTTT…TC
Details: aptamer strand: ATP DNA aptamer (quencher-CACCTGGGGGAGTATTGCGGAGGAAGG + anchor), 100 nM annealed; ATP concentration: 500 uM; one replicate
Summary of the method: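 The quencher-labelled ATP aptamer, at 100 nM, was annealed to Cy3-labelled switching-strand clusters on a modified Illumina MiSeq flow-cell. The clusters were imaged in selection buffer, then after 15 min with 500 uM ATP at 22 °C, and this buffer/ATP cycle ran five times with NaOH stripping and re-annealing between runs. Per-cluster fluorescence ratios, summed target-cycle over summed buffer-cycle Cy3 intensity, were averaged per switch-domain sequence. Clusters outside 100-1000 RFU were excluded.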
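Note: ATP exposure 15 min at 22 °C before imaging.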

Row | Sequence | switch fluorescence ratio
1 | GGCTGGAGAC | 1.01
2 | GAGCGCTCAT | 1
3 | CAAAGGGTTG | 0.983
4 | TTTGCTTATC | 1.07
5 | TTCCGCTGAG | 2.07
6 | CCTCATGGGG | 1.66
7 | AGCTGTAGTG | 1.05
8 | AGCGTCATA | 1.01
9 | TTTATTT | 1.01
10 | GGTTGCCGGC | 0.971
11 | GGTGAAAGGG | 0.995
12 | GATAAGAGTT | 0.962
13 | AATGTACTGA | 1.08
14 | GCAAGTGTAC | 1.13
15 | CGTCGTTTAG | 1.01
16 | CAATACTGCG | 1.21
17 | TCTGATAGGC | 1.05
18 | CAGTTGCTA | 0.952
19 | TCTTAACAAG | 0.957
20 | TCGGAGCTCA | 1.72
21 | GGGTATCGAC | 1.04
22 | GTGCCACAAG | 1.01
23 | GCCGGCTGAC | 0.988
24 | TGTCGGAAGG | 0.985
25 | AGCCACAGGG | 1.1
26 | CTGGATTTT | 1.03

Row | Sequence | switch fluorescence ratio
27 | GATTCTCACT | 0.999
28 | TGACAGGGGT | 1.03
29 | AGGTAAGGAT | 1.03
30 | GTGCTCGTTT | 1.02
31 | ATATGATCAG | 1.01
32 | TCGCTGTGTT | 0.975
33 | TCCAGGTAAA | 1.06
34 | GGGGTTACCG | 0.988
35 | TAGGTCTACT | 1.12
36 | GGAAGAGAGT | 1
37 | CCATGCGGGG | 1.07
38 | CTTCGCGAGA | 1.14
39 | GGGTTAGTGC | 0.969
40 | GAAGTTGCTG | 0.955
41 | TTGAATATT | 1.01
42 | GGTTGCGGAC | 1.03
43 | CGTGTCGAAC | 1.05
44 | GATGCGCCCC | 1.24
45 | ACGAAAGTTC | 1.06
46 | ACTTGCTTCA | 0.999
47 | CAAAGGTTAC | 0.984
48 | ACGAACTGCT | 1.17
49 | AAGTTGCGCA | 1.04
50 | CGATGACCTG | 0.971
51 | AGCTGTAGGG | 1.04
52 | TCGCTAGGCG | 0.979

Row | Sequence | switch fluorescence ratio
53 | TTTGGACA | 1.03
54 | ATATTGGATC | 1.02
55 | CCAAAAATGC | 1.29
56 | CCCATTTCTG | 0.982
57 | AACCGTCCCG | 1.55
58 | GGATGGGACC | 1
59 | TATTACCTAC | 1.31
60 | TGTCCATTAG | 0.988
61 | AAAAAGGAA | 1.03
62 | AAGTGGTGGC | 1.05
63 | CGCCTGCCAC | 1.39
64 | TTCCAATGTA | 1.03
65 | TCTTTTCTA | 0.986
66 | GTGGAATGTG | 0.935
67 | AGGCGAACTG | 1.11
68 | GAATCAGGGC | 1.02
69 | TAGAGGCA | 0.986
70 | TCAGAATTTG | 0.938
71 | TGGTGTCTCA | 1.01
72 | GTAAGGGGG | 0.97
73 | TTGGCTCACA | 0.999
74 | TAAAATGGAG | 0.968
75 | GAGGCCTAAA | 0.987
76 | AAAGGTCTC | 0.986
77 | ACCGAGTTAA | 0.994
78 | CGGACGACGA | 1.07

Row | Sequence | switch fluorescence ratio
79 | GCATACTGAC | 1.49
80 | ACTTTGGCAG | 1.02
81 | AGGGTGTAGC | 1.01
82 | ATCCTGCTTG | 1.03
83 | CTAATGGTGT | 1.03
84 | TTTCTAAGGT | 1.03
85 | GGGTAAGTCC | 0.999
86 | TGTGTCCAAG | 0.975
87 | TACCGTGGGA | 1.05
88 | ACTGAGACGC | 0.993
89 | TGTGTTGTGC | 0.986
90 | GATAGGTAGT | 1.03
91 | CCGGGTCAAA | 1.51
92 | AAGTGGCTGA | 0.986
93 | AGGGAAAAGT | 1.02
94 | TTGTTCTTGA | 0.976
95 | GGTCCGGAGA | 1.03
96 | CGCTTGGTTA | 0.978
97 | TTCCCATAGG | 1.14
98 | CAGCACAGCC | 1.11
99 | TTATTGGTCT | 1.01
100 | ATTTTCCGAC | 1.53
101 | ATTGCCCCCA | 1.04
102 | ATGATATTGT | 0.992
103 | CAGACATTAG | 0.984
104 | TCGGGGGCAA | 1.05

Row | Sequence | switch fluorescence ratio
105 | TTGGCTTGAA | 0.996
106 | TGTTAGGCGG | 1.02
107 | AAGTTAAATA | 1.03
108 | TTGCCCGAG | 1
109 | GGTGCGGTAC | 2.91
110 | AACTGCACGG | 1.43
111 | TTGGTATCTA | 1.01
112 | GATTGTGCGC | 1
113 | GGAGTGCTTA | 0.995
114 | CCTCCTAAGG | 1.89
115 | CCTTGGAAAG | 1.02
116 | TCGGTAGAGC | 1.02
117 | GCTGATTGTA | 0.999
118 | TGTTATACTC | 1.46
119 | GCCCAACGTT | 0.983
120 | TTATGGTTGC | 0.973
121 | CTGATCGCCC | 1.73
122 | TGCGGCGCCA | 0.994
123 | CTTCTCGTGG | 1.02
124 | ATTGTTATTC | 1.01
125 | TGTATTAGAC | 1
126 | TTTCCAACTG | 1.03
127 | TAGTGGAATG | 0.974
128 | GATGCTTGGG | 1
129 | GGCGACTGTA | 0.972
130 | GTTTTTAAGC | 0.953

Row | Sequence | switch fluorescence ratio
131 | GAATTTCAGC | 1.03
132 | AAAGCCTAGG | 1.05
133 | AAAGCTGTAT | 0.974
134 | GCTGTGGCCA | 0.995
135 | GATGGGTCAG | 1.01
136 | AGCTGGTGAA | 0.981
137 | TCTTGGCGTT | 1
138 | ATTCACGGCA | 1.18
139 | ATGTTACTCT | 1
140 | ATCCAAAGTC | 1.11
141 | AAGTGTAAGC | 0.959
142 | TATAAGTAAC | 1.03
143 | CGTCTATTG | 0.948
144 | TAATCGCGGT | 1.01
145 | TATGTTTGCG | 0.995
146 | CCATGTCGCC | 1.03
147 | AAATAAATCG | 0.984
148 | AAACGGCCGG | 1.01
149 | CCGTCTGAC | 1.45
150 | TTATTTCGC | 0.994
151 | ACGACAGTAC | 1.81
152 | GAATATTCA | 0.989
153 | TGAAGTCAG | 1.03
154 | AAATCTCTCA | 0.996
